Data: the supplement of paper PMC12217912
The list shows a part of the results. Sequences were assembled here from the parent chain. Inactive controls read about 0.05.

B1: TEV protease; numbered along this chain (parent)
chain: MGESLFKGPRDYNPISSSICHLTNESDGHTTSLYGIGFGPFIITNKHLFRRNNGTLVVQSLHGVFKVKDTTTLQQHLVDGRDMIIIRMPKDFPPFPQKLKFREPQREERICLVTTNFQTKSMSSMVSDTSCTFPSGDGIFWKHWIQTKDGQCGSPLVSTRDGFIVGIHSASNFTNTNNYFTSVPKNFMELLTNQEAQQWVSGWRLNADSVLWGGHKVFMVKPEEPFQPVKEATQL

Variants of: B1
Assay: raw area under fraction-flipped curve 0-4 h after induction (AUC4h, not background-subtracted), DNA-recorder readout of cleavage of the substrate (dimensionless); higher = more cleavage of the substrate by the protease variant
Details: temperature: 34 °C; time window: 0-4 h after rhamnose induction
Description: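 In vivo DNA recorder in E. coli TOP10(DE3) ΔrhaA at 34 °C. Each TEVp single-site mutant (parent TEVp 0) is paired with a single-site variant of the 7-mer TEVs (canonical ENLYFQ|S). The substrate sits between flexible linkers in a Bxb1-sfGFP-TEVs-SsrA fusion, so cleavage stabilises Bxb1 and speeds flipping of a recombination array, read by NGS. The value is the raw area under the fraction-flipped curve over 0-4 h after rhamnose induction (AUC4h), with ≥20 reads per time point. It is not background-subtracted; inactive controls average about 0.047.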
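Note: Bxb1 expression induced with 0.2% (w/v) L-rhamnose at OD600 near 0.5, cultures sampled hourly, flipped fraction per protease–substrate barcode pair counted by paired-end Illumina sequencing.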

| Variant | area with substrate ENLYFAS | area with substrate ENLYFCS | area with substrate ENLYFDS | area with substrate ENLYFES | area with substrate ENLYFFS | area with substrate ENLYFGS | area with substrate ENLYFIS | area with substrate ENLYFKS | area with substrate ENLYFMS | area with substrate ENLYFNS | area with substrate ENLYFPS | area with substrate ENLYFRS | area with substrate ENLYFTS | area with substrate ENLYFVS | area with substrate ENLYFWS | area with substrate ENLYFHS | area with substrate ENLYFLS | area with substrate ENLYFSS | area with substrate ENLYFYS |
| --- | --- | --- | --- | --- | --- | --- | --- | --- | --- | --- | --- | --- | --- | --- | --- | --- | --- | --- | --- |
| I19Y | 0.0514 | 0.0545 | 0.0478 | 0.0168 | 0.059 | 0.0584 | 0.0544 | 0.0549 | 0.0517 | 0.0356 | 0.0579 | 0.0646 | 0.0389 | 0.0457 | 0.0728 |  |  |  |  |
| C20N | 0.0442 | 0.0573 | 0.0473 | 0.0457 | 0.0602 | 0.0702 | 0.0468 | 0.0434 | 0.0521 |  | 0.057 |  | 0.0585 | 0.0441 | 0.0382 | 0.0525 | 0.0483 | 0.0543 | 0.0391 |
| C20Q | 0.041 |  | 0.0434 | 0.0499 | 0.0465 | 0.0528 |  |  |  |  | 0.0569 | 0.0479 | 0.0463 |  |  | 0.0442 |  | 0.0481 | 0.049 |
| H21A | 0.0501 | 0.0597 | 0.0483 | 0.0675 | 0.0728 | 0.0567 | 0.0578 | 0.0528 | 0.0663 | 0.08 | 0.0585 | 0.0647 | 0.0633 | 0.0626 | 0.0578 |  | 0.0538 | 0.0759 | 0.0507 |
| H21C | 0.0446 | 0.0857 | 0.0666 | 0.0697 | 0.0626 |  | 0.0553 |  | 0.0629 | 0.0548 |  | 0.0739 |  | 0.0846 |  | 0.0616 |  | 0.057 | 0.0562 |
| H21Q | 0.0458 | 0.0547 |  | 0.062 | 0.0677 | 0.0367 | 0.0564 | 0.0612 | 0.065 | 0.0692 | 0.0568 | 0.0578 | 0.0681 | 0.0584 | 0.0502 | 0.0525 | 0.0571 | 0.0617 |  |
| L22E | 0.0442 |  |  | 0.049 | 0.0474 | 0.0345 | 0.0476 | 0.0606 | 0.0429 | 0.0442 | 0.0495 |  | 0.037 | 0.037 | 0.0439 | 0.0386 |  | 0.0569 | 0.0408 |
| L22I | 0.0398 | 0.0631 |  | 0.0665 | 0.0495 |  | 0.0578 | 0.0501 | 0.0624 | 0.0574 | 0.0642 | 0.0612 | 0.0553 |  | 0.0512 | 0.0573 | 0.0601 | 0.0548 |  |
| L22P | 0.0451 | 0.0423 | 0.064 | 0.0487 |  |  | 0.0459 | 0.0608 | 0.0408 |  | 0.0438 | 0.056 | 0.0424 | 0.0434 | 0.0322 |  | 0.0435 | 0.023 | 0.0316 |
| T23C | 0.0499 | 0.0494 |  | 0.0481 | 0.0707 | 0.0629 | 0.0539 | 0.0745 | 0.0764 | 0.0636 | 0.0663 | 0.0632 | 0.0631 |  | 0.0465 |  | 0.0592 | 0.0331 | 0.0642 |
| T23L | 0.0652 | 0.0678 | 0.0531 |  | 0.0745 |  | 0.0536 | 0.0606 | 0.0677 | 0.0605 | 0.0634 | 0.0558 | 0.0582 |  |  |  |  |  | 0.0692 |
| T23Y | 0.13 | 0.0654 | 0.0682 |  | 0.0769 |  | 0.0556 |  | 0.0644 | 0.0545 | 0.0583 |  | 0.0522 | 0.053 | 0.0552 |  |  |  | 0.0546 |
| N24E | 0.0605 | 0.0573 |  | 0.0712 | 0.0875 | 0.0513 | 0.0509 | 0.0628 | 0.0644 | 0.0585 | 0.0583 | 0.0598 | 0.0616 |  | 0.0676 |  | 0.0577 | 0.0557 | 0.0596 |
| E25G | 0.0612 | 0.0452 | 0.0593 | 0.061 | 0.0483 | 0.0679 | 0.066 | 0.069 | 0.0638 | 0.0574 | 0.054 | 0.0555 | 0.0649 | 0.0435 | 0.0432 | 0.0339 | 0.0529 | 0.0548 |  |
| E25N | 0.0548 | 0.0499 | 0.0523 |  | 0.0715 |  | 0.033 | 0.0574 | 0.0684 | 0.0637 | 0.0567 | 0.0468 | 0.0686 |  |  | 0.0352 | 0.0651 | 0.0504 |  |
| E25R | 0.0696 | 0.0591 | 0.0507 | 0.0702 | 0.0668 |  | 0.0572 | 0.0644 | 0.0628 | 0.066 | 0.0513 | 0.0674 | 0.0456 | 0.0581 | 0.0503 | 0.064 | 0.0623 | 0.0426 |  |
| E25W | 0.055 |  | 0.0494 | 0.0759 | 0.0709 | 0.0537 | 0.0565 | 0.0583 | 0.0306 | 0.0582 | 0.0647 | 0.0543 | 0.0602 |  | 0.0601 | 0.0438 | 0.0565 | 0.0583 | 0.035 |
| E25Y | 0.0585 | 0.056 | 0.0633 | 0.0672 | 0.0703 |  | 0.0488 | 0.0679 | 0.0683 | 0.0773 | 0.0644 | 0.0481 | 0.0536 |  | 0.0556 |  | 0.059 | 0.0525 |  |
| S26H | 0.046 | 0.0567 |  | 0.0403 | 0.067 |  |  | 0.0581 | 0.0547 |  | 0.0646 | 0.0501 |  |  | 0.0516 | 0.0644 | 0.0752 |  |  |
| S26N | 0.0481 | 0.0614 |  | 0.0653 | 0.0481 |  | 0.0543 | 0.0494 | 0.0558 | 0.0612 | 0.0589 | 0.0564 | 0.0531 | 0.0414 |  | 0.0579 |  | 0.0847 |  |
| S26P | 0.057 | 0.053 | 0.0498 | 0.0431 | 0.0551 |  | 0.0551 |  | 0.0681 |  | 0.0402 |  | 0.0516 | 0.0516 |  | 0.0432 | 0.0513 | 0.0431 |  |
| D27C | 0.0559 | 0.0532 | 0.0639 | 0.0584 | 0.0606 | 0.0607 | 0.0561 | 0.0466 | 0.0598 | 0.0614 | 0.052 | 0.0582 | 0.0311 | 0.0109 | 0.042 |  | 0.0559 | 0.0676 | 0.055 |
| G28D | 0.07 | 0.0607 | 0.067 | 0.0578 | 0.0657 | 0.0589 | 0.0518 | 0.0506 | 0.0657 | 0.0587 | 0.0564 | 0.0542 |  | 0.0619 | 0.0517 | 0.0555 | 0.0604 | 0.0616 | 0.0455 |
